# Laboratory results as given in PubChem BioAssay AID504706 (National Center for Advancing Translational Sciences (NCATS), 2011).
# In all, about 320,000 compounds went through this assay and about 200 (0.062%) were called active. The inconclusive results got no clear call from the source; some entries with a clear call stand among them for comparison. The call rests on the fitted dose curve; in most records, active means well fitted activation curve with a large enough effect; inconclusive means small, poorly fitted or top-dose-only effect; inactive means no such curve, though single readings can be large or run the other way. No potency is given beside an inconclusive call; the fits are too rough.
# Assay: qHTS assay for re-activators of p53 using a Luc reporter; further: nearly all actives have a fitted effect of over 45% in size
# Details: H1299 p53-A138V BP100-luciferase reporter, luminescence, 24 h; series mostly up to 92.2 µM
# Outline: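 p53-null H1299 cells stably carrying temperature-sensitive p53-A138V and a BP100-luciferase reporter were pinned with compounds (4-point, 1:5 series) and held 24 hrs at 37 deg C. Luminescence was read 10 min after detection reagent.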
# Potency means the concentration at half of the fitted maximal effect; tags describe the fitted curve by direction and shape.
row,Structure (SMILES),Potency
1,COc1cc2[nH]c(=S)nc(NCCc3ccc(C)cc3)c2cc1OC,inactive
2,CCC(NC(=O)CCc1c(C)c2cc3c4c(oc3cc2oc1=O)CCCC4)C(=O)O (centres undefined),inactive
3,Cn1nnnc1SCc1csc(Nc2ccccc2)n1,"inconclusive [activator, partial curve, poor fit]"
4,O=C(CSc1nncn1-c1ccccc1F)NC1CC1,"inconclusive [activator, partial curve, poor fit]"
5,N/C(=N\OC(=O)c1ccc(Cl)cc1)c1[nH]ncc1Br,"inconclusive [activator, partial curve, poor fit]"
6,O=C(COC(=O)Cc1ccsc1)NC(c1ccccc1)c1ccccc1,"inconclusive [activator, single point]"
7,CC1CCCC(C)N1C(=O)c1cc(-c2ccc3c(c2)OCO3)on1 (centres undefined),"inconclusive [activator, full curve]"
8,COCCOC(=O)c1[nH]c2c(c1C)C(=O)CC(c1ccccc1)C2 (centres undefined),"inconclusive [activator, partial curve, poor fit]"
9,O=C(COC(=O)/C=C/c1cccs1)NC(c1ccccc1)c1ccccc1,inactive
10,Nc1cccc(CCc2nc3cc4ccccc4cc3[nH]2)c1,"inconclusive [activator, full curve, poor fit]"
11,O=C(N/N=C/c1ccccc1)c1[nH]c2ccc(Br)cc2c1-c1ccccc1,"inconclusive [activator, partial curve, poor fit]"
12,Cc1cccc(C)c1Nc1c(-c2ccccn2)nc2ccccn12,"inconclusive [activator, partial curve, poor fit]"
13,COc1cccc(/C=N/Nc2ncnc(Cl)c2N)c1O,"inconclusive [activator, partial curve, poor fit]"
14,CS(=O)(=O)Cc1ccc(C(=O)N2CCCC2c2cccs2)cc1 (centres undefined),inactive
15,Cc1cc(=O)[nH]c(N=N/C(=N/Nc2ccccc2C)c2ccccc2)n1,"inconclusive [activator, single point]"
16,O=C(Nc1cccc(Cl)c1)Nc1ccc(Cl)cn1,inactive
17,CN(C)c1nc(-c2ccccn2)nnc1-c1ccccc1,"inconclusive [activator, full curve, poor fit]"
18,COc1cc2ccccc2cc1C(=O)Nc1ccccc1Cl,"inconclusive [activator, full curve, poor fit]"
19,COc1ccccc1-c1sc2cc3c(cc2c1-c1ccc(OCCN2CCCCC2)cc1)OCO3,inactive
20,O=C(CCc1ccccc1)Nc1ccc(NC(=O)c2ccco2)nc1,"inconclusive [activator, full curve, poor fit]"
21,CCS(=O)(=O)c1ncc(Cl)c(C(=O)Nc2ccccc2OC)n1,inactive
22,Cc1ccnc(N(C(=O)c2cccs2)C(=O)c2cccs2)c1,"inconclusive [activator, partial curve, poor fit]"
23,COCc1[nH]nc2c1C(c1ccccc1Cl)C(C#N)=C(N)O2 (centres undefined),"inconclusive [activator, single point]"

row,Structure (SMILES),Potency
1,COc1ccc(OC(=O)c2cc3cc(Cl)ccc3oc2=O)cc1,"inconclusive [activator, single point]"
2,O=C(Nc1ccc(N2CCOCC2)cc1)C1CCN(C(=O)OCc2ccccc2)CC1,inactive
3,c1cc(CNc2ccc(N3CCOCC3)cc2)ccn1,inactive
4,COc1ccc(-c2noc(CCC(=O)NCCc3cccc(C)c3)n2)cc1,inactive
5,COc1cc(C(=O)N/N=C/c2ccc(OC(=O)c3ccccc3Cl)c(OC)c2)ccc1O,inactive
6,O=C(c1ccc2c(c1)OCO2)N1CCN=C1SCc1ccccc1,"inconclusive [activator, full curve, poor fit]"
7,Cc1nc(NC(=O)CN2CCOCC2)sc1C(=O)N(C)C,"inconclusive [activator, single point]"
8,CCc1ccc(NC(=O)c2[nH]c(C)c(C(C)=O)c2C)cc1,"inconclusive [activator, partial curve, poor fit]"
9,O=C(NCCc1ccccc1)c1nccc2ccccc12,"inconclusive [activator, partial curve, poor fit]"
10,COc1cccc(-c2ncc3ccccc3c2COC(=O)c2ccc(C(F)(F)F)cc2)c1,inactive
11,COc1ccc(C(=O)NCc2ccc(-c3nc4ccccc4s3)cc2)cc1OC,"inconclusive [activator, partial curve, poor fit]"
12,O=c1[nH]c(-c2cccnc2)nc2sc(-c3ccccc3)cc12,inactive
13,CN1CCN(c2ccc(S(=O)(=O)N3CCCCC3)cc2NC(=O)/C=C/c2ccc(Cl)c([N+](=O)[O-])c2)CC1,"inconclusive [activator, partial curve, poor fit]"
14,COc1ccc(N2CCN(c3nccs3)CC2)cc1,"inconclusive [activator, full curve, poor fit]"
15,CCOC(=O)C1C(=O)C=C(c2cccc(NS(C)(=O)=O)c2)CC1c1ccco1 (centres undefined),"inconclusive [activator, partial curve, poor fit]"
16,Cc1ccc(C)n1-c1ccc(C(=O)Nc2ccccc2)cc1,"inconclusive [activator, partial curve, poor fit]"
17,Cc1ccc(-c2nnc3ccc(SC(C)C(=O)O)nn23)cc1 (centres undefined),inactive
18,CCCc1cc2c(cc1NC(=O)c1ccc(C(C)(C)C)cc1)OCO2,"inconclusive [activator, partial curve, poor fit]"
19,O=C(c1cc(-c2ccccc2)on1)N1CCCC1,"inconclusive [activator, partial curve, poor fit]"
20,COc1ccc(C(C#N)N2N=C(c3ccccc3)CC2c2ccccc2)cc1OC (centres undefined),"inconclusive [activator, partial curve, poor fit]"
21,N=c1c(C(=O)NC2CCCC2)cc2c(=O)n3ccccc3nc2n1C1CCCCC1,"inconclusive [activator, partial curve, poor fit]"
22,CCOC(=O)c1c(C)[nH]c(C=Nc2ccccc2)c1O,"inconclusive [activator, full curve, poor fit]"
23,O=C(CSc1ncccn1)N1CCCCCC1,inactive

row,Structure (SMILES),Potency
1,O=C1CC(c2ccc(O)cc2)Oc2cc(O)cc(O)c21 (centres undefined),inactive
2,Cc1cccc(NC(=S)NC(=O)c2ccc(-c3ccccc3)cc2)n1,"inconclusive [activator, partial curve, poor fit]"
3,Cn1c(SCC(=O)Nc2ccc3c(c2)OCCO3)nnc1-c1ccco1,"inconclusive [activator, single point]"
4,Oc1cccc(/C=C/c2ccc3cccc(O)c3n2)c1,"inconclusive [activator, full curve, poor fit]"
5,CCN(C[C@H]1N[C@@](C)(C(=O)OC)[C@H]2C(=O)N(Cc3ccccc3)C(=O)[C@@H]12)C(=O)c1ccc(C(C)(C)C)cc1,inactive
6,O=C(Nc1cccc(Cl)c1)Nc1nccs1,"inconclusive [activator, partial curve, poor fit]"
7,c1ccc(-c2onc3cc4c(cc23)OCCO4)cc1,"inconclusive [activator, partial curve, poor fit]"
8,CCN(C(=O)Cc1ccccc1OC)c1nnc(-c2ccncc2)s1,inactive
9,Cc1ccnc(N2C(=O)c3ccccc3C2O)c1 (centres undefined),inactive
10,O=C(OCc1nc2ccccc2s1)c1cc2ccccc2oc1=O,"inconclusive [activator, full curve, poor fit]"
11,O=C1/C(=C/c2ccco2)SC(=S)N1CCC(=O)N1CCCCC1CCO (centres undefined),"inconclusive [activator, partial curve, poor fit]"
12,Cc1c(NC(=O)C(C)OC(=O)COc2cccc3c2OC(C)(C)C3)c(=O)n(-c2ccccc2)n1C (centres undefined),"inconclusive [activator, partial curve, poor fit]"
13,O=C(O)c1cccc2c1C(=O)c1ccc(N3CCCCC3)cc1S2(=O)=O,"inconclusive [activator, single point]"
14,C=CCOn1c(=O)c(-c2cc3ccccc3o2)[n+]([O-])c2ccccc21,"inconclusive [activator, partial curve, poor fit]"
15,Cc1ccccc1NC1=NC(=S)N(c2ccccc2)C12CCCCC2,inactive
16,Cc1ccc(Cl)c2c1=NC(=O)C=2c1[nH]c(=S)[nH]c1O,inactive
17,COc1cccc(C(=O)Nc2cccc(SC)c2)c1,"inconclusive [activator, partial curve, poor fit]"
18,CCN1CCCC1CNc1ncnc2c1[nH]c1ccc(Cl)cc12 (centres undefined),"inconclusive [activator, single point]"
19,COC(=O)c1ccc(COc2ccccc2/C=C(\C#N)C(=O)Nc2c(C)cc(C)cc2C)cc1,"inconclusive [activator, single point]"
20,COc1ccc(-c2cc3nc(C)cc(N4CC(C)CC(C)C4)n3n2)cc1 (centres undefined),inactive
21,CCc1nc(N2CCC(C)CC2)c2oc3ccccc3c2n1,"inconclusive [activator, single point]"
22,CCOC(=O)c1cc(-c2ccccc2)sc1NC(=O)COC(=O)c1cccc(S(N)(=O)=O)c1,inactive
23,CCC(CC)C(=O)Nc1cccc(C(=O)Nc2ccc(S(N)(=O)=O)cc2)c1,inactive
